# Test results from publication PMC4336329 (PLoS ONE, 2015).
# In all, about 310,000 compounds went through this assay and about 2,200 (0.71%) showed an effect of 50% or more. Effects have a minus sign here. The list shows a part of the results.
# Biological target: human ether-à-go-go-related gene (hERG) potassium channel (human, UniProt Q12809)
# Assay: primary screen, population patch clamp on CHO cells stably expressing hERG
# human ether-à-go-go-related gene (hERG) potassium channel, sequence (Q12809 whole entry, looked up): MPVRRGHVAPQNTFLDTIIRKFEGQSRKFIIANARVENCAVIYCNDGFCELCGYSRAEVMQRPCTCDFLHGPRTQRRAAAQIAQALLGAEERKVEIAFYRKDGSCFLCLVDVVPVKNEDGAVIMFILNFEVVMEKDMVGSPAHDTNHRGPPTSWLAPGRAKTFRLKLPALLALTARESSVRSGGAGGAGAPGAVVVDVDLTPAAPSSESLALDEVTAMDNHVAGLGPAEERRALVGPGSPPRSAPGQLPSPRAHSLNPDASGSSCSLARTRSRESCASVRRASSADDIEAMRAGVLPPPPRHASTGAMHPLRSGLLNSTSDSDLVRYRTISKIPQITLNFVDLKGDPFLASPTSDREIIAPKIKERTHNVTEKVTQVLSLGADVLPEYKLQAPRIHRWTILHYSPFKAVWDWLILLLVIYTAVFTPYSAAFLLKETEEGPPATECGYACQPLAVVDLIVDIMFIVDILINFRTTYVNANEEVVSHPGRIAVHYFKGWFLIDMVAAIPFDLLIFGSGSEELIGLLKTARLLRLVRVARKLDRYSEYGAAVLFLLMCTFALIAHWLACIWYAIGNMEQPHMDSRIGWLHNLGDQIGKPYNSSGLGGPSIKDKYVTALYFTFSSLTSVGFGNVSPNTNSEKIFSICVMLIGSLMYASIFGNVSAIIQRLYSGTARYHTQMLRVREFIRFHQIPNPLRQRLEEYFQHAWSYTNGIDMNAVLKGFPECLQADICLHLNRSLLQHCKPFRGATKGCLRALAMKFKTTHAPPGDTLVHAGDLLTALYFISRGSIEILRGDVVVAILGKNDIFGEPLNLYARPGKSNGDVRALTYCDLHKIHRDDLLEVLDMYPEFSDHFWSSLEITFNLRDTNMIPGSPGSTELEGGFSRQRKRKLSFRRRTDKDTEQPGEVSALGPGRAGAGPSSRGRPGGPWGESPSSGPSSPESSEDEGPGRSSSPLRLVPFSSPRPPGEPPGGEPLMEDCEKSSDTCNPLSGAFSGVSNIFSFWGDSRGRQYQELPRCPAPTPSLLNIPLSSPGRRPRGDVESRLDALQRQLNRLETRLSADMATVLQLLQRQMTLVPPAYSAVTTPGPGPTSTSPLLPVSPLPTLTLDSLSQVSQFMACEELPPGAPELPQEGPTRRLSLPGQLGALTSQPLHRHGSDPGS
row,SMILES,"hERG current change (%, negative = inhibition) at 1uM [%]"
1,Cc1ccc(SCC(=O)NCc2ccncc2)cc1,8.37
2,NC(=O)c1ccsc1NC(=O)COC(=O)C1=NNC(=O)CC1,14.1
3,COc1cccc(-c2nc(Oc3cc(C)cc(C)c3)c3ccccc3n2)c1O,15.5
4,COc1ccc(NC(=O)c2ccc(COCC(F)(F)C(F)F)cc2)cc1,7.19
5,COc1ccc(Nc2nc(N3CCCCC3)c3ccccc3n2)cc1,0.968
6,Cc1ccc(C)c(N2CCN(C(=O)C3CCCN(S(=O)(=O)c4c(C)noc4C)C3)CC2)c1 (stereo not drawn),10.9
7,CC(Oc1ccc(Cl)cc1Cl)C(=O)Nn1cnnc1 (stereo not drawn),16.7
8,COc1ccc(OCc2nnc(NC(=O)Nc3ccc(F)cc3)s2)cc1,8.15
9,Cc1noc(N)c1C1(O)C(=O)Nc2c(Cl)cc(Cl)cc21 (stereo not drawn),1.24
10,O=C(OCc1ccc(Cl)c(Cl)c1)c1ccc[nH]1,-1
11,CC1(C)SC2C(NC(=O)COc3ccccc3)C(=O)N2C1C(=O)[O-].[K+] (stereo not drawn),0.024
12,COc1cccc(C2=NN(C(=O)c3ccco3)C(O)(C(F)(F)F)C2)c1 (stereo not drawn),11.9
13,CCCCC(CC)C(=O)Nc1cc(C(=O)NCCC)ccc1N1CCC2(CC1)CC(c1ccccc1)=NO2 (stereo not drawn),-11.4
14,O=C1/C(=C/c2ccco2)SC(=S)N1CC1CCCO1 (stereo not drawn),14.5
15,Cn1ncc([N+](=O)[O-])c1C(=O)N1CCOCC1,-0.9
16,COc1c(C(=O)Nc2nnc(C3CC3)s2)csc1Cl,7.74
17,Cc1ccc(NC2=C(Cl)C(=O)OC2OC(=O)c2ccco2)cc1 (stereo not drawn),7.08
18,COc1ccc(CCNC(=O)c2nnn(-c3ccc4c(c3)OCCO4)c2N)cc1OC,14.4
19,CCCCN(CC(=O)NC1CC1)S(=O)(=O)c1ccc(OCC)cc1,-1.89

row,SMILES,"hERG current change (%, negative = inhibition) at 1uM [%]"
1,O=[N+]([O-])c1ccc(Sc2ccccc2Cl)nc1,15.4
2,O=C(O)c1ccc2c(c1)C1C=CCC1C(c1ccncc1)N2 (stereo not drawn),11.4
3,COc1cc(/C=N/Nc2ccc(C(=O)O)cc2)cc(OC)c1OC,8.58
4,COc1ccccc1C1C(C(=O)c2cc3ccccc3o2)=C(O)C(=O)N1CCN1CCOCC1 (stereo not drawn),19.6
5,O=C(CCC(=O)n1ncc2ccccc21)N1CCCCC1,11.6
6,COc1ccc(S(=O)(=O)Nc2ccccc2Cl)cc1NC(C)=O,14.8
7,CCOC(=O)COc1ccc(S(=O)(=O)N2CCN(c3ccccc3F)CC2)cc1,9.59
8,Cc1ccccc1C(=O)Nc1cccc(C#N)c1,9.35
9,CN(CC(=O)NCc1ccccn1)S(=O)(=O)c1cc(Cl)ccc1Cl,1.85
10,CCOc1ccc(NC(=O)c2ccccc2OCC(=O)c2ccc(C)cc2)cc1,10.9
11,CN1CCN(CC(=O)N/N=C\c2c[nH]c3ccccc23)CC1,17.8
12,CN(CC(=O)Nc1ccc(OC(F)(F)F)cc1)C(=O)/C=C/c1cc2c(cc1[N+](=O)[O-])OCO2,-1.01
13,CCCn1nnnc1NCc1ccc(OC)cc1,14.8
14,O=C(NCc1nc(-c2ccc(C(F)(F)F)cc2)no1)c1cccs1,10.5
15,N=c1c2c(ncn1CCN1CCOCC1)Oc1ccc3ccccc3c1C2c1ccccc1 (stereo not drawn),-5.37
16,O=C(NN1CCOCC1)c1cn(-c2ccccc2)nc1-c1cccs1,8.52
17,O=C(NC1(C(F)(F)F)NC(=O)N(Cc2ccco2)C1=O)c1cccs1 (stereo not drawn),19.2
18,CCOc1ccc(NC(=O)CN(C)C(=O)c2cc(S(=O)(=O)N(C)C)ccc2N2CCCC2)cc1OCC,11.7
19,CN(C)c1ccc(S(=O)(=O)c2ccc(Cl)cc2)cc1,4.44

row,SMILES,"hERG current change (%, negative = inhibition) at 1uM [%]"
1,Clc1ccc(-c2csc3ncnc(Cl)c23)cc1,10.5
2,CCOC(=O)C1CCc2sc(N)c(C#N)c21 (stereo not drawn),6.97
3,CCCN(Cc1cc2cc(C)ccc2[nH]c1=O)C(=O)c1cccc(OC)c1,-1.25
4,COc1ccc(F)cc1C(=O)C1CCCN(Cc2cnc(C)s2)C1 (stereo not drawn),1.46
5,CCc1ccc(-c2cc3c(=O)n(CC(=O)NCCCN4CCN(Cc5ccccc5)CC4)nc(C)n3n2)cc1,4.42
6,Cc1cc2ncn(/N=C/c3ccc(-c4ccccc4)o3)c2cc1C,-0.761
7,CS(=O)c1ccccc1-c1nc(-c2cc(C(F)(F)F)cc(C(F)(F)F)c2)no1 (stereo not drawn),-21.1
8,Cn1nc(C(F)(F)F)cc1Oc1ncc(C(F)(F)F)cc1Cl,12.5
9,COc1ccccc1C(=O)NCCC(=O)N1CCN(S(=O)(=O)c2ccc(Cl)cc2)CC1,-8.49
10,O=C(O)c1cccc(NC(=S)N/N=C/c2ccccn2)c1,6.18
11,Cl.N=c1n(CCN2CCCCC2)c2ccccc2n1CC(O)c1cccc(Br)c1 (stereo not drawn),-41.7
12,O=C(CN1CCN(Cc2ccccc2Cl)C1=O)NCc1cccnc1,8.23
13,COc1ccc(-c2[nH]c(-c3ccc(Cl)cc3)nc2SCC(=O)Nc2nccs2)cc1,16.2
14,CCc1ccc(S(=O)(=O)NCc2cn3ccsc3n2)s1,12.6
15,Cc1cc(=O)n2nc(N3CCC(C(=O)NCc4ccccc4Cl)CC3)sc2n1,3.87
16,S=c1[nH]nc(Cc2cccs2)n1-c1ccccc1Cl,6.39
17,CN1C(=O)/C(=C\N2CCc3ccccc32)C(=O)NC1=S,11.7
18,CCCOc1ccc(C2NC(=S)NC(C)=C2C(=O)c2ccccc2)cc1OC (stereo not drawn),9.95
19,O=C(NCc1nnc(SCC(=O)N2CCN(c3ccccc3)CC2)o1)c1c(F)cccc1Cl,2.49
